The record followed here is the supplement of paper PMC11417369.

± gives the standard deviation of the averaged measurements. Some of the results follow.

This test deals with PfAP2-I AP2 domain 3 (GST-tagged). Briefly: gcPBM binding intensity (ln(normalized median fluorescence intensity)); higher = stronger DNA binding. In outline: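 DNA-binding domains from P. falciparum, fused to GST and produced in E. coli, were put on an Agilent 4 × 180k double-stranded probe array for 1 h in 1× PBS holding 1% milk, 0.2 mg/ml BSA, 0.5% salmon testes DNA and 0.03% Triton X-100. Probes were primer-extended, 36 bp long and drawn from intergenic genomic regions, with negative controls included. After Alexa488 anti-GST antibody detection and a 488 nm scan, binding intensity was set as the highest Masliner-normalised natural-log median intensity across replicate spots of either probe orientation.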
In the case of “GTGAGTGAAATATGCAAACACACACCCGAAAAATGT [CACACA_site3197]”, the “gcPBM binding intensity (ln)” value came to 8.29 ± 0.85.
Regarding “TATGATTTTAATGAAACACACAATTTTATGTTAATA [CACACA_site311]”, the “gcPBM binding intensity (ln)” value is 7.38 ± 0.55.
As for “TATAAAGGTATACAAAGTACAAAATACATATATACT [XGTACX_site6431]”, the figure is 7.46 ± 0.46; as for “TTTTAGTTATTGTATTATTATTAATATATAATATCT [CACACA_negctrl_site1528]”, 7.39 ± 0.6.
Take “AAAGCATGTTAATATGTATAAATACTGATCATTCAC [GTGCAC_negctrl_site576]”: the “gcPBM binding intensity (ln)” value was determined as 7.62 ± 0.42.
On to “CTAAAATGTAAAAACGCACACATAATATTATAAAAA [CACACA_site2788]”, for which the “gcPBM binding intensity (ln)” value worked out at 8.38 ± 0.45.
As to “AACAGATAATATAAAAAAAAAAAAAAAAATAATTAA [GTGCAC_negctrl_site69]”, the “gcPBM binding intensity (ln)” value turned out to be 7.16 ± 0.59.
Turning to “TGAATAAATCAAAGCACACATACACAGACATATATA [CACACA_site4316]”, the “gcPBM binding intensity (ln)” value was 8.405 ± 0.035.
In the case of “CTTGTCATTTGGCACACACACATGTATAGGTTATTA [CACACA_site5656]”, the “gcPBM binding intensity (ln)” value was found to be 8.44 ± 0.4.
Take “TATATAAATAAACACACACACACCTTATAATTATTA [CACACA_site9345]”: the “gcPBM binding intensity (ln)” value amounted to 7.86 ± 0.37.
Consider “GTAGTGGTTGAATATACACACATATATATATATATA [CACACA_site2651]”, for which the “gcPBM binding intensity (ln)” value was determined as 9.41 ± 0.54.
Take “AACGTGTATTTATATTGTACACATTCATACATCAAA [XGTACX_site3644]”: the “gcPBM binding intensity (ln)” value is 8.54 ± 0.55.
On to “AGATAATAGGTTACTTGTACATATAAATAAATATAT [XGTACX_site158]”, for which the “gcPBM binding intensity (ln)” value came to 7.55 ± 0.49.
The figure for TTTTGTTATTATGAAGTGCATTTATGTTCATGTCTA is 9.74 ± 0.25.
Regarding “AAAAAAAAAAAAAATTCACACAAGACTACTACATTT [CACACA_site4195]”, the “gcPBM binding intensity (ln)” value worked out at 7.68 ± 0.59.
On to “AAAATCTAATATAATGCACACATAAAAAAAAATCAA [CACACA_site9211]”, for which the “gcPBM binding intensity (ln)” value was 10.9 ± 0.59.
With “ATATTAATTTCTCATGCATGTTCTACCCAATTGTAA [TGCATGCA_site355]”, the “gcPBM binding intensity (ln)” value was 8.1 ± 0.8.
In the case of TATATTATATATATACTGCACTGTTTTACAAAATTA, the “gcPBM binding intensity (ln)” value worked out at 10.8 ± 0.57.
As for “ACCCTTTTATATAAGAGTACAAACGTATTATTAAAT [XGTACX_site2221]”, the “gcPBM binding intensity (ln)” value was 7.94 ± 0.27.
In the case of “AATATTAAAAACAAAACACACAAAAAAAAATAAAAT [CACACA_site702]”, the “gcPBM binding intensity (ln)” value turned out to be 7.77 ± 0.55.
On to “ATATATGACTAATAAAGTACATACTTCATATAATTA [XGTACX_site6699]”, for which the “gcPBM binding intensity (ln)” value was found to be 8.09 ± 0.49.
The figure for “TGTACGAGTCGTAGAGTGCAGTCTGGAGAAAAGTAC [GTGCAC_site9683]” is 9.4 ± 0.13; for “TATATATATATATATACACACTTGTGCAGAATATTA [CACACA_site5257]” it is 9.6 ± 0.15.
As for “TATTTTTTTTTTTTTTGTACACATAATTGTAATCGT [XGTACX_site8415]”, the figure is 7.88 ± 0.38.
“CCACAGGATTGGTTCAAACACACATATTATATGACT [CACACA_site661]”: the “gcPBM binding intensity (ln)” value worked out at 7.62 ± 0.65.
For the sequence “CATATAAAAATGTGCACACACACACCGATATATATT [CACACA_site4940]”, the “gcPBM binding intensity (ln)” value was found to be 9.59 ± 0.17.
With “AAAAAAAAAATAAAATAAAATATATTATATATATTA [GTGCAC_negctrl_site431]”, the “gcPBM binding intensity (ln)” value came to 7 ± 0.22.
Regarding “TCACTTTTTATTAAATGTACATGCTTTCATTTTCAT [XGTACX_site8139]”, the “gcPBM binding intensity (ln)” value is 7.97 ± 0.57.
As for “GAATAAATAATTAACACACACAATCTTTTTTTTTTT [CACACA_site3140]”, the figure is 7.6 ± 0.49; as for “TATATATATATATATGTACACACATCAATCATATTA [CACACA_site8594]”, 9.49 ± 0.56.
For “ATAAGGTTACAACAAACACACAAAGGAATATACACA [CACACA_site7840]”, the “gcPBM binding intensity (ln)” value is 7.99 ± 0.65.
The figure for “AAAATTTTTTGAAATAGTACTTTTTTATATATATAT [XGTACX_site2634]” is 9.24 ± 0.13; for “GAACTCATTACAAAGTGTACAAATTAAATAAATGGT [XGTACX_site3995]” it is 8.02 ± 0.54.
Take TTTTTCTTATTTGGATTGCACTACATATATATATAT: the “gcPBM binding intensity (ln)” value is 9.77 ± 0.28.
Regarding “AGGTGCTTAATATATACACACATACAGATATATATA [CACACA_site5552]”, the “gcPBM binding intensity (ln)” value was found to be 10.7 ± 0.71.
For “TATAAATTTATATATGCATGTCAGAAAAAAAAGTAA [TGCATGCA_site414]”, the “gcPBM binding intensity (ln)” value was 8.29 ± 0.54.
For the sequence “CAACAAAATAAACACACACACACAAACACAAAAAAA [CACACA_site5806]”, the “gcPBM binding intensity (ln)” value is 8 ± 0.28.
On to “ATATATAAATATATATGTACATAAATATATATCTTT [XGTACX_site6910]”, for which the “gcPBM binding intensity (ln)” value is 7.62 ± 0.45.
As for “AAGAAAAAAAAAAAAACACACATATATATATATATA [CACACA_site2027]”, the figure is 9.61 ± 0.2; as for “TGTATACCTTAATATACACACATACCTATATTTATA [CACACA_site6746]”, 7.67 ± 0.49.
Consider “TATAAATAGAGGAAGCGTACATATATATATATATAT [XGTACX_site4993]”, for which the “gcPBM binding intensity (ln)” value was 9.38 ± 0.21.
As to “GGATATTAATAAATATGTACATATGTAGATTTATTA [XGTACX_site554]”, the “gcPBM binding intensity (ln)” value is 7.73 ± 0.41.
As to “AAATAAATAAATAGACGTACAAAAATATTATACATT [XGTACX_site6776]”, the “gcPBM binding intensity (ln)” value was 7.91 ± 0.12.
Turning to “GATATGATGTGTTTGGTAGTTTTTGATGTTGGCATG [GTGCAC_negctrl_site506]”, the “gcPBM binding intensity (ln)” value was 7.77 ± 0.42.
Take “AATAATGAAAAAATGAATAAAATTACTATATAATTC [XGTACX_negctrl_site457]”: the “gcPBM binding intensity (ln)” value was found to be 7.25 ± 0.55.
In the case of “TATAAATGTGTATGCGCATGTAAAAATATAATTTAT [TGCATGCA_site750]”, the “gcPBM binding intensity (ln)” value is 8.22 ± 0.71.
Consider “GTAAATAATAAACACCGTACATGGTATAATTCAATG [XGTACX_site3655]”, for which the “gcPBM binding intensity (ln)” value was found to be 7.6 ± 0.59.
Turning to “CACGCGCACGAACACACACACACACGCATATAAATA [CACACA_site7103]”, the “gcPBM binding intensity (ln)” value turned out to be 8.29 ± 0.41.
In the case of “ATATTATTTTATTTTTGTACAGATATCTTTAAAAAA [XGTACX_site3734]”, the “gcPBM binding intensity (ln)” value is 7.94 ± 0.45.
Take “TACAGATAAATATACATACATATATATATATATATA [XGTACX_negctrl_site182]”: the “gcPBM binding intensity (ln)” value was determined as 8.89 ± 0.83.
Turning to “TTTTTTTTTTTTTTTGCACACTTAAATTTGGTGGGG [CACACA_site2344]”, the “gcPBM binding intensity (ln)” value was 9.89 ± 0.19.
As for “AATACATACATACATACATGCATATATATATATATA [TGCATGCA_site462]”, the “gcPBM binding intensity (ln)” value was 9.46 ± 0.73.
As for “TTATTAAAAATGGTATGTACGCACATAATATATATA [XGTACX_site3230]”, the figure is 8.56 ± 0.51.
For the sequence “AACATCATCTCTCCACAACAACAAAAAAAAAAATAC [CACACA_negctrl_site311]”, the “gcPBM binding intensity (ln)” value was 8.12 ± 0.49.
As for “TATTTTTATTGGTGAATACACACGTATATATATATT [CACACA_site2401]”, the “gcPBM binding intensity (ln)” value is 7.96 ± 0.45.
With “TGTTTATGTTTACATGTGCGCATTACAGAAAAAAAA [GTGCAC_site9669]”, the “gcPBM binding intensity (ln)” value is 8.89 ± 0.12.
On to “ACATGTATACTTTTTACGAAAAAAAAAAAAAAAAAA [CACACA_negctrl_site1638]”, for which the “gcPBM binding intensity (ln)” value was determined as 8.05 ± 0.69.
